From ChEMBL document CHEMBL4888484, “Replenishing the malaria drug discovery pipeline: Screening and hit evaluation of the MMV Hit Generation Library 1 (HGL1) against asexual blood stage Plasmodium falciparum ,using a nano luciferase reporter read-out” (2022) come the findings set out here.

The campaign covered roughly 150,000 compounds. About 540 (0.36%) showed an effect of 50% or more. The list shows a part of the results.

This test relates to Plasmodium falciparum. Description: Primary screen in NF54 nanoGlo assay, in single point, at 2uM, 72h; a lower Z score goes with more inhibition. As to conditions: timepoint 72 hour. Format: functional, Erythrocyte.
Turning to `Cc1cc(OC[C@@H](O)CNC(C)C)cc(C)c1Cl`, the “% Inhibition” value is -7% and the Z score stood at 1.4.
The matching figures for `CCOC(=O)c1sc2nc(-c3ccc(C)c(C)c3)c(NCc3cccc(F)c3)n2c1C`: -7% and 0.75.
The matching figures for `COc1ccc(-c2c(C)nn3c(=O)[nH]ncc23)c(OC)c1`: -3% and 0.56.
On to `CCCCNC(=O)Nc1cc(C)nn1CCO`, for which the “% Inhibition” value was -10% and the Z score came out at 1.99.
The matching figures for `Cc1ccc(S(=O)(=O)NCc2cccc(C#N)c2)cc1N(C)C`: -5% and 0.7.
The corresponding values for `CCc1ccc(CNC(=O)c2c(O)c3cccnc3[nH]c2=O)cc1` are -4% and 0.52.
Turning to `CC[C@H](C)c1cc(C(=O)NCCn2cnnc2C)on1`, the “% Inhibition” value is recorded as -9% and the Z score is listed as 1.47.
The corresponding values for `COc1cccc(CN2CCC(c3ncc(C)n3[C@H](C)CO)CC2)n1` are -1% and 0.1.
The matching figures for `CCN1CCN(C(=O)c2cccc(Nc3c(Oc4ccc(OC)cc4)cnn(-c4cccc(Cl)c4)c3=O)c2)CC1`: 6% and -0.75.
The matching figures for `C[C@@H](C1CCC1)N(C)C(=O)C1=CCCCO1`: -9% and 1.05.
For `Cn1ccnc1-c1csc(NC(=O)c2cccn2C2CC2)n1`, the “% Inhibition” value is recorded as -1% and the Z score worked out at 0.06.
The matching figures for `O=C(NCc1cccs1)c1ccc(N2CCCc3ccccc32)s1`: -7% and 0.88.
On to `Cc1nnc(CC(=O)N2CCCc3cc(-c4ccccc4)ccc32)o1`, for which the “% Inhibition” value is reported as -7% and the Z score is recorded as 0.81.
Consider `Oc1cccc(-c2nccn2-c2cccc(-c3ccn[nH]3)c2)c1`, for which the “% Inhibition” value was -11% and the Z score amounted to 1.87.
The matching figures for `O=C(Nc1ccc(N2CCc3sccc3C2)cc1)c1cnccn1`: 28% and -3.53.
The matching figures for `Fc1cc(CNC[C@H]2CN(Cc3ccccc3)CCCO2)ccc1OC(F)F`: 13% and -2.47.
The matching figures for `Cc1cc(C)c2nc(-c3cccc(Cl)c3)c(C)c(C(=O)Nc3ccc(Oc4ccc(-c5ccccc5)cc4)cc3)c2c1`: 4% and -0.5.
For `C[C@H](NCCNC(=O)c1ccco1)c1ccc(Br)o1`, the “% Inhibition” value is -4% and the Z score is reported as 0.44.
The matching figures for `O=C(Nc1ccccc1OCc1ccccc1)N1CCC2(CCO2)CC1`: -19% and 2.43.
Consider `O=S(=O)(c1ccc(F)c(Cl)c1)N1CC[C@H](c2ccc3c(c2)CCO3)C1`, for which the “% Inhibition” value is given as -8% and the Z score is recorded as 1.11.
The corresponding values for `Cc1c(Br)c(C(=O)N(C(C)C)C(C)C)nn1C` are -2% and 0.27.
As to `Cc1cc(S(=O)(=O)N[C@H]2CC(=O)N(C)C2)c(C)s1`, the “% Inhibition” value is 3% and the Z score is recorded as -0.53.
For `Cc1oc(-c2[nH]ncc2C(=O)N2CCOCC2)cc1S(=O)(=O)Nc1cccc(F)c1`, the “% Inhibition” value is reported as -5% and the Z score amounted to 0.63.
The corresponding values for `COc1cc(C(=O)NCc2cnc(N(C)C)n2C)ccc1Cl` are -4% and 0.63.
The corresponding values for `O=C(Cc1c(F)c(F)c(F)c(F)c1F)Nc1ccc2c(c1)OCCCO2` are -8% and 1.52.
The matching figures for `CCOc1cccc(CC(=O)NCc2ccc3c(c2)CCN3C(=O)c2ccc(F)cc2)c1OCC`: -12% and 1.11.
For `Cc1noc2ncc(C(=O)N3CCN(CCC(C)C)CC3)cc12`, the “% Inhibition” value came out at 2% and the Z score is listed as -0.37.
The corresponding values for `CC(C)CNC(=O)[C@@H]1Cc2[nH]cnc2C2(CCN(Cc3cccs3)CC2)N1` are 2% and -0.44.
The matching figures for `CN(CC1CC(F)(F)CN1C(=O)OC(C)(C)C)[C@@H]1COC[C@H]1O` (some centres undefined): -5% and 0.64.
The corresponding values for `CC[C@](C)(NCc1ccco1)c1nnnn1-c1ccc(OC)c(OC)c1` are -14% and 1.98.
Turning to `Cn1cc(C(=O)O)c(-c2ccc(NS(=O)(=O)c3cccc(F)c3)cc2)n1`, the “% Inhibition” value is given as -1% and the Z score is given as 0.21.
The corresponding values for `c1ccc2[nH]c(-c3nc(-c4ccc(-c5csc(C6CC6)n5)cc4)no3)cc2c1` are -6% and 0.92.
The corresponding values for `Cc1ccc(Br)cc1NC(=O)CNS(=O)(=O)C1CC1` are -18% and 1.59.
The matching figures for `COc1ccc(N2C(=O)N(Cc3ccncc3)c3ccccc3S2(=O)=O)cc1OC`: 20% and -2.34.
On to `CCOc1cc(CNC(=O)c2ccccc2NC(=O)c2nsc3ccccc23)ccc1OC`, for which the “% Inhibition” value is -12% and the Z score came to 2.05.
As for `Cc1ccc(-c2nc(C)c(-c3cc[nH]n3)s2)cc1`, the “% Inhibition” value is 30% and the Z score is -3.91.
The matching figures for `N#Cc1cnc(N2CC(C3CC3)C2C2CC2)cn1` (centres undefined): 2% and -0.3.
The corresponding values for `NS(=O)(=O)c1ccc(CNC(=O)c2[nH]nc3c2CCCCC3)cc1` are -1% and 0.1.
The matching figures for `O=C(NCc1ccccn1)c1ccc2c(c1)nc1n2CCCC1`: 11% and -2.03.
`Cc1c(Cl)ccc2c(=O)c3c([nH]c12)CCN(CC(=O)Nc1ccc2c(c1)OCCO2)C3`: the “% Inhibition” value is -1% and the Z score was found to be 0.19.
The matching figures for `CN(C)c1c(F)c(F)c2cc3c(C(C)(C)C)nn(C)c3nc2c1F`: 36% and -1.61.
The matching figures for `O=C(c1ccccc1)N1C[C@@H]2COCCN2C2(C1)CN(C1CCCCC1)C2`: 2% and -0.38.

Broadly, the % Inhibition is the relative decrease from the control value, in per cent.
